Assay results: the supplement of paper PMC4967469
The IC50 comes from the fitted curve, where viability falls to half of the control; a limit (>, <) means that the fit lies beyond the doses tested. The AUC spans the tested range (256-fold, ending at the top dose) of the same fit; values near 1 show little effect. For some assays here: Any top dose called inferred was derived from the fitted curves, not read from the paper. For some assays here: An entry number marks a drug with two screens in the source, which often give different values.

What was measured:
Assay in all cases: Viability of human cancer cell lines after 72 h of drug (GDSC screen)
MP470 = compound: S=C(NCc1ccc2c(c1)OCO2)N1CCN(c2ncnc3c2oc2ccccc23)CC1 [MP470]; conditions: top dose 20 µM; top dose inferred
Procedure: (§1)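 Human cancer cell lines in 384-well plates, medium with 10% serum, drug for 72 h over a 256-fold dose range (nine 2-fold or five 4-fold steps up to the top dose). Adherent lines were fixed and stained with the nucleic acid dye Syto60, suspension lines read with resazurin; signal relative to control wells, capped at 0 and 100%. One two-parameter sigmoid per drug and line, fitted in a mixed model over all curves with the slope shared within a line.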

LFM-A13 = compound: C/C(O)=C(\C#N)C(=O)Nc1cc(Br)ccc1Br [LFM-A13]; conditions: top dose 16 µM; top dose inferred
Procedure: as §1

Gemcitabine = compound: Nc1ccn([C@@H]2O[C@H](CO)[C@@H](O)C2(F)F)c(=O)n1 [Gemcitabine]; conditions: top dose 1.024 µM
Procedure: as §1

Nilotinib = compound: Cc1cn(-c2cc(NC(=O)c3ccc(C)c(Nc4nccc(-c5cccnc5)n4)c3)cc(C(F)(F)F)c2)cn1 [Nilotinib]; conditions: top dose 2 µM
Procedure: as §1

AUY922 = compound: CCNC(=O)c1noc(-c2cc(C(C)C)c(O)cc2O)c1-c1ccc(CN2CCOCC2)cc1 [AUY922]; conditions: top dose 0.256 µM; top dose inferred
Procedure: as §1

TW-37 = compound: CC(C)c1ccccc1Cc1cc(C(=O)Nc2ccc(S(=O)(=O)c3ccccc3C(C)(C)C)cc2)c(O)c(O)c1O [TW-37]; conditions: top dose 5 µM
Procedure: as §1

Bicalutamide = compound: CC(O)(CS(=O)(=O)c1ccc(F)cc1)C(=O)Nc1ccc(C#N)c(C(F)(F)F)c1 [Bicalutamide]; conditions: top dose inferred
Procedure: as §1

T0901317 = compound: O=S(=O)(c1ccccc1)N(CC(F)(F)F)c1ccc(C(O)(C(F)(F)F)C(F)(F)F)cc1 [T0901317]; conditions: top dose 10.24 µM; top dose inferred
Procedure: as §1

KIN001-270 = compound: Cc1ccc(Nc2cc(-c3cccc(N4C(=O)c5ccccc5C4=O)c3)ncn2)cc1NS(C)(=O)=O [KIN001-270]; conditions: top dose 20 µM; top dose inferred
Procedure: as §1

[1] = top dose 1.024 µM, screen: GDSC drug entry 150
[2] = top dose 10 µM, screen: GDSC drug entry 1502

Cell Line	AUC (MP470)	IC50 (MP470)	AUC (LFM-A13)	IC50 (LFM-A13)	AUC (Gemcitabine)	IC50 (Gemcitabine)	AUC (Nilotinib)	IC50 (Nilotinib)	AUC (AUY922)	IC50 (AUY922)	AUC (TW-37)	IC50 (TW-37)	AUC (Bicalutamide; [1])	IC50 (Bicalutamide; [1])	AUC (Bicalutamide; [2])	IC50 (Bicalutamide; [2])	AUC (T0901317)	IC50 (T0901317)	AUC (KIN001-270)	IC50 (KIN001-270)
HARA (lung squamous cell carcinoma, adherent)	0.967	> 20 µM	0.954	> 16 µM	0.631	0.156 µM	0.934	> 2 µM	0.664	0.0496 µM	0.614	0.679 µM	0.98	> 1.02 µM	0.981	> 10 µM	0.977	> 10.2 µM	0.98	> 20 µM
BICR78 (head and neck, adherent)	0.895	> 20 µM	0.983	> 16 µM	0.776	0.475 µM	0.968	> 2 µM	0.795	0.14 µM	0.439	0.207 µM	0.982	> 1.02 µM	0.978	> 10 µM	0.973	> 10.2 µM	0.98	> 20 µM
OVKATE (ovary, adherent)	0.973	> 20 µM	0.961	> 16 µM	0.966	> 1.02 µM	0.979	> 2 µM	0.978	> 0.256 µM	0.796	4.5 µM	0.977	> 1.02 µM			0.979	> 10.2 µM	0.907	> 20 µM
HT-3 (cervix, adherent)	0.952	> 20 µM	0.982	> 16 µM	0.69	0.22 µM	0.977	> 2 µM	0.901	> 0.256 µM	0.461	0.244 µM	0.843	0.746 µM	0.972	> 10 µM	0.985	> 10.2 µM	0.983	> 20 µM
DBTRG-05MG (glioma, adherent)	0.949	> 20 µM	0.97	> 16 µM	0.474	0.0537 µM	0.954	> 2 µM	0.553	0.0229 µM	0.683	1.11 µM	0.983	> 1.02 µM	0.982	> 10 µM	0.976	> 10.2 µM	0.953	> 20 µM
NCI-H2172 (non-small cell lung carcinoma, adherent)	0.918	> 20 µM	0.962	> 16 µM	0.909	> 1.02 µM	0.976	> 2 µM	0.884	> 0.256 µM	0.579	0.555 µM	0.983	> 1.02 µM	0.976	> 10 µM	0.981	> 10.2 µM	0.942	> 20 µM
T-T (oesophagus, adherent)	0.914	> 20 µM	0.926	> 16 µM	0.245	0.0119 µM	0.941	> 2 µM	0.448	0.0116 µM	0.49	0.294 µM	0.963	> 1.02 µM	0.976	> 10 µM	0.964	> 10.2 µM	0.963	> 20 µM
NCI-H1568 (lung adenocarcinoma, adherent)	0.902	> 20 µM	0.96	> 16 µM	0.135	< 0.004 µM	0.98	> 2 µM	0.504	0.0164 µM	0.473	0.259 µM	0.982	> 1.02 µM	0.966	> 10 µM	0.949	> 10.2 µM	0.964	> 20 µM
HT-115 (large intestine, adherent)	0.396	0.665 µM	0.99	> 16 µM	0.983	> 1.02 µM	0.991	> 2 µM	0.991	> 0.256 µM	0.718	1.21 µM	0.991	> 1.02 µM	0.96	> 10 µM	0.966	> 10.2 µM	0.98	> 20 µM
SCC-9 (head and neck, adherent)	0.935	> 20 µM	0.971	> 16 µM	0.98	> 1.02 µM	0.981	> 2 µM	0.702	0.0699 µM	0.625	0.762 µM	0.98	> 1.02 µM	0.969	> 10 µM	0.909	> 10.2 µM	0.937	> 20 µM
H2595 (mesothelioma, adherent)	0.977	> 20 µM	0.943	> 16 µM	0.528	0.0786 µM	0.954	> 2 µM	0.673	0.0592 µM	0.414	0.165 µM	0.981	> 1.02 µM	0.977	> 10 µM	0.981	> 10.2 µM	0.981	> 20 µM
no-10 (glioma, adherent)	0.953	> 20 µM	0.965	> 16 µM	0.598	0.126 µM	0.982	> 2 µM	0.612	0.035 µM	0.504	0.322 µM	0.98	> 1.02 µM	0.968	> 10 µM	0.976	> 10.2 µM	0.961	> 20 µM
NUGC-4 (stomach, adherent)	0.963	> 20 µM	0.986	> 16 µM	0.613	0.131 µM	0.988	> 2 µM	0.633	0.0373 µM	0.768	1.88 µM	0.988	> 1.02 µM	0.986	> 10 µM	0.984	> 10.2 µM	0.956	> 20 µM
451Lu (melanoma, adherent)	0.937	> 20 µM	0.984	> 16 µM	0.221	0.0102 µM	0.977	> 2 µM	0.472	0.0134 µM	0.369	0.139 µM	0.989	> 1.02 µM	0.986	> 10 µM	0.977	> 10.2 µM	0.982	> 20 µM
NCI-H2444 (non-small cell lung carcinoma, adherent)	0.933	> 20 µM	0.987	> 16 µM	0.988	> 1.02 µM	0.983	> 2 µM	0.988	> 0.256 µM	0.829	3.71 µM	0.988	> 1.02 µM	0.981	> 10 µM	0.986	> 10.2 µM	0.988	> 20 µM
NCI-H2347 (lung adenocarcinoma, adherent)	0.969	> 20 µM	0.979	> 16 µM	0.767	0.462 µM	0.983	> 2 µM	0.693	0.0632 µM	0.707	1.38 µM	0.974	> 1.02 µM	0.98	> 10 µM	0.983	> 10.2 µM	0.981	> 20 µM
RERF-LC-MS (lung adenocarcinoma, adherent)	0.887	> 20 µM	0.986	> 16 µM	0.635	0.152 µM	0.987	> 2 µM	0.733	0.0757 µM	0.32	0.0965 µM	0.981	> 1.02 µM	0.968	> 10 µM	0.959	> 10.2 µM	0.982	> 20 µM
huH-1 (liver, adherent)	0.931	> 20 µM	0.98	> 16 µM	0.799	0.629 µM	0.971	> 2 µM	0.984	> 0.256 µM	0.536	0.4 µM	0.984	> 1.02 µM	0.982	> 10 µM	0.984	> 10.2 µM	0.984	> 20 µM
KYSE-70 (oesophagus, adherent)	0.945	> 20 µM	0.976	> 16 µM	0.711	0.269 µM	0.986	> 2 µM	0.544	0.0214 µM	0.83	3.56 µM	0.985	> 1.02 µM	0.979	> 10 µM	0.979	> 10.2 µM	0.986	> 20 µM
CaR-1 (large intestine, adherent)	0.926	> 20 µM	0.947	> 16 µM	0.786	0.707 µM	0.969	> 2 µM	0.812	0.236 µM	0.843	> 5 µM	0.978	> 1.02 µM	0.711	3.39 µM	0.967	> 10.2 µM	0.966	> 20 µM
CHP-212 (neuroblastoma, adherent)	0.813	9.77 µM	0.979	> 16 µM	0.152	0.00607 µM	0.942	> 2 µM	0.566	0.0239 µM	0.719	1.23 µM	0.988	> 1.02 µM			0.981	> 10.2 µM	0.983	> 20 µM
NCI-H1623 (lung adenocarcinoma, adherent)	0.974	> 20 µM	0.985	> 16 µM	0.612	0.139 µM	0.985	> 2 µM	0.974	> 0.256 µM	0.569	0.503 µM	0.985	> 1.02 µM	0.978	> 10 µM	0.985	> 10.2 µM	0.975	> 20 µM
NCI-H2291 (lung adenocarcinoma, adherent)	0.977	> 20 µM	0.983	> 16 µM	0.983	> 1.02 µM	0.983	> 2 µM	0.984	> 0.256 µM	0.906	> 5 µM	0.982	> 1.02 µM	0.973	> 10 µM	0.98	> 10.2 µM	0.965	> 20 µM
RC-K8 (B-cell lymphoma, suspension)	0.987	> 20 µM	0.993	> 16 µM	0.783	0.372 µM	0.992	> 2 µM	0.891	0.23 µM	0.726	1.24 µM	0.993	> 1.02 µM	0.97	> 10 µM	0.987	> 10.2 µM	0.981	> 20 µM
SK-MEL-3 (melanoma, adherent)	0.909	> 20 µM	0.984	> 16 µM	0.559	0.0953 µM	0.961	> 2 µM	0.687	0.0587 µM	0.696	1.22 µM	0.956	> 1.02 µM	0.983	> 10 µM	0.975	> 10.2 µM	0.977	> 20 µM
A2780 (ovary, semi-adherent)	0.692	4.42 µM	0.954	> 16 µM	0.182	0.00679 µM	0.981	> 2 µM	0.454	0.012 µM	0.467	0.253 µM	0.984	> 1.02 µM	0.975	> 10 µM	0.965	> 10.2 µM	0.916	> 20 µM
RCM-1 (large intestine, adherent)	0.966	> 20 µM	0.973	> 16 µM	0.796	0.599 µM	0.98	> 2 µM	0.83	0.21 µM	0.799	3.02 µM	0.985	> 1.02 µM	0.98	> 10 µM	0.973	> 10.2 µM	0.972	> 20 µM
